Measurements reported in the supplement of paper PMC7826260.
This is one part of the list. Each Rep nickase domain was tested in vitro on the same pool of single strands for 1 h at 37 °C with 3 µM enzyme; only the middle of the 90-letter strands is printed. Values are log2 of uncut reads against the no-enzyme pool; strong cutting gives strongly negative numbers. There is no active / inactive call. Because reads are shares of a total, they shift together; values above 0 arise when much of the pool is cut.

Legend:
Test in all cases: uncleaved DNA left, log2 of reads against the no-enzyme library (log2 ratio); higher = less cleavage (more negative = more Rep cleavage of the k-mer); sequences stand for … in CTCGTCCG…ACCGGAGA
[1] = system: T1, Rep nickase domain of Muscovy duck circovirus
T1 sequence (residues 1-111, tag not shown): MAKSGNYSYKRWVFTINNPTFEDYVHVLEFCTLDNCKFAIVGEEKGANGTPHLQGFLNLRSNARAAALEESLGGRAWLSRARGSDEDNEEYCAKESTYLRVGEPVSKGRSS
Method: (§1)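 A pool of 90-nt single-stranded DNAs with seven random bases just before the constant AC of the nick site (name = the seven bases) was cut by 3 µM recombinant His6-SUMO-tagged Rep nickase domain (300 nM DNA, 50 mM HEPES pH 8.0, 50 mM NaCl, 1 mM MnCl2, 1 h, 37 °C, three replicates). Uncut DNA was amplified and sequenced.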

[2] = system: T2, Rep nickase domain of banana bunchy top virus
T2 sequence (residues 1-94, tag not shown): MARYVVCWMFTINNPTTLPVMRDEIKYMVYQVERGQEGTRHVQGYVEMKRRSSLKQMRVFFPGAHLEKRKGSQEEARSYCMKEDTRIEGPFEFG
Method: as §1

[3] = system: T3, Rep nickase domain of cabbage leaf curl virus
T3 sequence (residues 1-116, tag not shown): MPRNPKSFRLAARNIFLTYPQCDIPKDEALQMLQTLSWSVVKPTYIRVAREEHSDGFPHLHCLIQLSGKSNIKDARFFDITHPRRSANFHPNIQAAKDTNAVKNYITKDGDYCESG
Method: as §1

[4] = system: T4, Rep nickase domain of chickpea chlorotic dwarf virus
T4 sequence (residues 1-124, tag not shown): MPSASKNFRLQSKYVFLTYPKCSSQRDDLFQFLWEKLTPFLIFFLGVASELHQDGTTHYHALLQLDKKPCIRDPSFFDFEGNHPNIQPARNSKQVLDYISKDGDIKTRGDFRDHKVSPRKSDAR
Method: as §1

[5] = system: T5, Rep nickase domain of faba bean necrotic yellows virus
T5 sequence (residues 1-98, tag not shown): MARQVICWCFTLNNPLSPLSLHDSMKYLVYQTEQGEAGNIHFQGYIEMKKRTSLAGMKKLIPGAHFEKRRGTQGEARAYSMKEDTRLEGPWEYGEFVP
Method: as §1

[6] = system: T6, Rep nickase domain of maize striate mosaic virus
T6 sequence (residues 1-117, tag not shown): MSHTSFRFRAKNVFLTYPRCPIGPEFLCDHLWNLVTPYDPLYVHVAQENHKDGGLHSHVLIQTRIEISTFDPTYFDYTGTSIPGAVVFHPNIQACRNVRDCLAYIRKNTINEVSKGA
Method: as §1

[7] = system: T7, Rep nickase domain of porcine circovirus 2
T7 sequence (residues 2-116, tag not shown): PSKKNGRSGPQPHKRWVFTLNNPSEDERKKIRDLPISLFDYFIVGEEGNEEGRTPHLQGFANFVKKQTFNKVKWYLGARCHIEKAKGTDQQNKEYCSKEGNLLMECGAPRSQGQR
Method: as §1

[8] = system: T8, Rep nickase domain of tomato golden mosaic virus
T8 sequence (residues 1-124, tag not shown): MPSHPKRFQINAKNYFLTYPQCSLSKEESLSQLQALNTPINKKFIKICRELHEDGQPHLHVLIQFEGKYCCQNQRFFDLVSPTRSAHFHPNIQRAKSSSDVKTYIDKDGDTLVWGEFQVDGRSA
Method: as §1

[9] = system: T9, Rep nickase domain of tomato yellow leaf curl virus
T9 sequence (residues 1-136, tag not shown): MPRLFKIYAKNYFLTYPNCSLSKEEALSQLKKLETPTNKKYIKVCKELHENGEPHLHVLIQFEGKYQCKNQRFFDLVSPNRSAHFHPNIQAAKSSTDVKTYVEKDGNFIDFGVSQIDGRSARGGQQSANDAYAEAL
Method: as §1

[10] = system: T10, Rep nickase domain of wheat dwarf virus
T10 sequence (residues 1-137, tag not shown): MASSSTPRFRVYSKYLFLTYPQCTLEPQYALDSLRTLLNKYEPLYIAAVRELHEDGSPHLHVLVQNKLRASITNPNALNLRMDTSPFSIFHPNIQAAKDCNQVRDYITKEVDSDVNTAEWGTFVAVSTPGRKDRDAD
Method: as §1

Sequence	uncleaved DNA left (log2) [1]	uncleaved DNA left (log2) [2]	uncleaved DNA left (log2) [3]	uncleaved DNA left (log2) [4]	uncleaved DNA left (log2) [5]	uncleaved DNA left (log2) [6]	uncleaved DNA left (log2) [7]	uncleaved DNA left (log2) [8]	uncleaved DNA left (log2) [9]	uncleaved DNA left (log2) [10]
GGTTTGT	-0.0733	0.0545	0.415	1.23	-0.081	1.5	-0.105	0.0024	0.079	0.0386
GCCCTAC	0.0217	0.0238	0.0327	-0.437	0.0253	0.213	0.00863	-0.0819	0.0424	0.00366
GTACTGC	0.024	0.00945	-0.00139	0.314	-0.0491	0.377	0.0568	0.00848	-0.0444	0.031
CGGCTGT	0.00461	0.0654	-0.06	0.518	-0.0553	1.66	0.0809	-0.0236	-0.0896	0.065
GGCGCAC	-0.108	0.131	0.547	1.35	0.011	1.78	0.196	-0.0969	0.0459	0.106
AAAACGC	0.0527	-0.0338	-0.255	-0.625	0.0463	-1.06	0.13	0.0319	-0.0535	-0.122
CAGTATA	-0.0699	-0.339	-0.234	-2.44	-0.611	-0.455	-3.06	-0.0943	-0.0548	-0.053
GCTTTAG	0.0592	0.0644	-0.236	0.00694	0.0531	-0.971	0.192	0.167	-0.00875	-0.0541
CAACCCG	-0.11	0.0391	-0.9	-0.983	-0.0546	-0.951	-1.46	-0.0656	0.0217	-0.0816
GCCCTTC	-0.0518	0.0264	0.155	0.45	0.000134	0.244	0.132	0.042	0.0707	0.0156
CCCGCCA	-0.238	-0.0231	-0.0892	-0.865	-0.0539	-0.479	-0.159	0.0106	-0.0854	-0.043
ACTTACC	-0.184	-0.0264	-0.225	-0.787	-0.0352	-0.0179	-0.324	-0.0362	-0.106	-0.119
ATCCAAA	-0.0908	-0.0324	-0.0172	-0.0321	0.0737	-0.656	0.0686	0.0558	-0.0774	0.116
CGCCTGA	-0.149	0.00341	-0.0523	0.461	0.093	1.42	-0.0729	-0.223	-0.166	-0.023
CCTGATC	0.0973	-0.082	0.194	0.343	0.259	0.284	0.0661	-0.107	0.12	0.0214
ACTATGA	-0.0215	0.0617	-0.124	0.11	0.0362	-0.866	0.106	0.0332	-0.0114	-0.0527

Sequence	uncleaved DNA left (log2) [1]	uncleaved DNA left (log2) [2]	uncleaved DNA left (log2) [3]	uncleaved DNA left (log2) [4]	uncleaved DNA left (log2) [5]	uncleaved DNA left (log2) [6]	uncleaved DNA left (log2) [7]	uncleaved DNA left (log2) [8]	uncleaved DNA left (log2) [9]	uncleaved DNA left (log2) [10]
ATTTGAA	0.0889	0.121	-0.147	-0.49	0.139	-0.627	-0.105	0.15	0.176	0.176
GGACTGC	-0.0427	0.0292	0.663	1.63	-0.049	2.05	0.183	-0.0556	0.071	0.109
GTAAAGC	0.0221	0.022	0.11	0.464	0.000734	-0.0553	0.0746	0.0345	0.0998	-0.0121
TGCCCGA	0.055	-0.0275	0.0181	-0.0175	0.0106	-0.616	0.0968	0.00508	0.0542	0.0876
GGCGCTT	0.0596	0.0896	0.405	0.993	-0.000537	1.83	-0.0426	-8.96e-06	-0.00336	0.00597
AATACCG	-0.0666	0.00867	-0.878	-0.716	0.0767	-1.05	0.0306	-0.000124	-0.0497	-0.104
GGTACAG	0.0967	0.121	0.837	2.03	0.136	2.21	0.221	0.0974	0.0483	0.179
GATAATA	0.00997	0.0192	0.157	-0.941	-0.0406	0.892	-0.0914	-0.00174	0.0188	0.0476
CATGTTC	-0.195	-0.106	-0.0465	-1.56	-0.0687	-0.886	-0.092	-0.121	-0.0439	-0.0816
AAGGCCG	0.0477	0.108	-0.643	-0.423	0.129	-0.985	0.27	0.0462	0.0965	0.0472
ACAGATC	-0.146	-0.0493	-0.164	-0.075	-0.132	-0.822	0.0725	-0.058	-0.244	-0.128
TACTCAA	-0.0128	0.147	0.108	-1.06	0.0565	-0.36	-1.17	0.165	0.173	0.173
GTCTGTT	-1.35	0.0394	0.172	0.36	-0.00572	1.56	-2.31	-0.00566	0.0525	0.0262
TTAGTTG	0.197	-0.038	0.022	0.0077	0.15	-0.329	0.191	0.0776	0.0733	0.141
GTTTGCC	-0.0623	-0.00599	-0.141	0.241	-0.082	-0.373	-0.0125	-0.0747	0.000127	-0.0771
